Results reported in PubChem BioAssay AID2202238 (Ras Initiative Chemistry Research Team, Frederick National …, 2025).
This is one part of the list. These are further read-outs of the screen, such as a control signal, another cell line or another target. No call is given for them.

Target: GTPase KRas (Homo sapiens) (UniProt P01116)
Test: Fragment capture on engineered cysteines, share of protein labelled (AID 2202238)
Set-up: protein at 5 µM with 500 µM competing thiol for 1.5 h
Details: KRAS G12D cysteine mutants, disulfide tethering, MALDI-TOF labeling, stronger effect = higher value, fragment at 500 µM
[1] = measured here: G75C mutant labeling
[2] = measured here: H94C mutant labeling
[3] = measured here: I36C mutant labeling
[4] = measured here: L120C mutant labeling
[5] = measured here: M67C mutant labeling
[6] = measured here: M72C mutant labeling
[7] = measured here: N86C mutant labeling
[8] = measured here: P121C mutant labeling
[9] = measured here: S122C mutant labeling
[10] = measured here: S136C mutant labeling
[11] = measured here: G60C mutant labeling
[12] = measured here: N26C mutant labeling

Sequence of UniProt P01116 (P01116 whole entry, looked up, the tested form may be a part): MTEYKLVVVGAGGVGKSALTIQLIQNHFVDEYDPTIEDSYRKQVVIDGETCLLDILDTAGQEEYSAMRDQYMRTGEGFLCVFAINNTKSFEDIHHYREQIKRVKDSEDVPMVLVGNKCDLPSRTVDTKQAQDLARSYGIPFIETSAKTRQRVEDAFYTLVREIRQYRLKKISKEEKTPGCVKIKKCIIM

Structure (SMILES)	percent labeling [1] [%]	percent labeling [2] [%]	percent labeling [3] [%]	percent labeling [4] [%]	percent labeling [5] [%]	percent labeling [6] [%]	percent labeling [7] [%]	percent labeling [8] [%]	percent labeling [9] [%]	percent labeling [10] [%]	percent labeling [11] [%]	percent labeling [12] [%]
O=C(CCS)Nc1ccn(CCOCCO)n1	7.4	26.3	28.9	32.4	22	15.6	23.8	28.3	32.6	41.1	–	–
O=C(NCCS)C1C2C=CC(C2)C1c1ccccc1 (centres undefined)	6.1	10.3	9.3	15.4	17.5	11	4.8	11.5	9.6	30.3	32.9	17.9
O=C(NCCS)c1cc(Br)cn(C2CC2)c1=O	18.7	33.4	24.8	40.2	36.5	44.2	19	22.6	23.2	46.5	41.1	37.1
CC(C)(C)OC(=O)N1CCC12CCN(C(=O)CCS)CC2	21.2	32.1	33	31.9	39.5	25.9	23.6	29.2	31.2	49.4	–	–
O=C(CC1COCCN1CC(F)(F)F)NCCS (centres undefined)	9.8	28.1	19.3	33.2	27.4	16.9	24.8	30	29.7	36	26.6	29.1
O=C(NCCS)c1ccc(-n2nccc2-c2ccc(F)cc2)cc1	13.8	12.3	7.7	11	8.7	27.7	5.9	9.2	5.3	13	18.8	20.8
Cc1cc(C)n(-c2ccc(Cl)c(C(=O)NCCS)n2)n1	8.5	17	9.3	12.4	12.8	21	6.8	10.5	8.1	16.7	19.7	25.4
Cc1ccc(C(O)(CC(=O)NCCS)C(F)(F)F)o1 (centres undefined)	14	31.6	25.9	39.3	28.9	36.4	35.4	31.2	30	41.2	56.1	31.7
O=C(NCCS)c1c[nH]cc(C(F)(F)F)c1=O	22.6	31.9	22.5	66.9	30.2	25.8	27.8	33.6	35.2	42.5	39.5	42.2
COc1c(F)c(F)cc2c(=O)c(C(=O)NCCS)cn(C3CC3)c12	12	7.8	4.6	4.8	5	0	0	4.1	0	9.1	18.3	18.4
COc1ccc(CCN(C)C(=O)CCS)cc1OC	14.2	37.7	38.8	29	40.6	26.3	23.3	33.5	37.5	60.1	–	–
Cn1nccc1C1(O)CN(C(=O)CCS)C1	13.6	21.3	27.8	17.2	30.3	16	20.4	28.9	34.1	40.2	–	–
O=C(Cc1scnc1-c1ccccc1)NCCS	8.7	27.2	26	38.8	52.5	29.7	23.5	31.2	26.6	47.4	38.3	36.5
Cn1cc(-c2nc(C(=O)NCCS)cs2)cn1	27.7	40	25.6	47	27.9	56.8	27	24.1	25.4	46.5	32.1	53.7
O=C(Cc1cscc1Br)NCCS	24.4	45.6	33.5	39.9	35.5	63.8	38.5	32.7	32.7	51.3	59.7	41.7
COc1ccc(-c2oc(C)cc2C(=O)NCCS)cc1	17.3	12.8	8	24.9	12.1	19.8	9.6	14	10.7	19	40.6	24.5
O=C(CCS)N(CCO)Cc1cccnc1Cl	10.4	28.3	33.2	38.8	36.6	21.8	13.9	36.1	34.8	51.5	–	–
O=C(CCS)N1CCc2[nH]cc(Br)c(=O)c2C1	11	30.3	42.3	29.8	31.2	18.3	28.5	22.2	23.9	48.5	–	–
O=C(Cc1ccccc1OC1CCOC1)NCCS (centres undefined)	10.9	36.3	24.2	44.7	34.6	19	26.7	30.2	32.8	44.2	34.4	33.3
O=C(CCS)NCc1ccc(N2CCCNC2=O)cc1	9.1	34.3	37.1	43.2	38.4	20.3	21.1	31.6	32.6	45.7	–	–
Cc1nnc2ccc(C3CCN(C(=O)CCS)CC3)nn12	13	35.3	38.3	30.4	51.3	28.6	18.6	32.8	27.7	54.2	–	–
O=C(CCc1ccnc2ccccc12)NCCS	19.6	26.5	30	29	30.5	38.3	18.4	29.5	20.6	44.7	40.7	33.7
O=C(CCS)N1CCC(O)(c2ccccc2)CC1	17.7	33.9	36.3	30.3	36.4	51.6	33.2	37.2	37.3	66.8	–	–
CN(C)CCOc1ccccc1NC(=O)CCS	17.9	45.1	41.8	27.3	43.6	33.5	29.9	33.1	31.8	51.7	–	–
CC1CN(S(C)(=O)=O)C(C)CN1C(=O)CCS (centres undefined)	8.5	34.5	41.4	34.5	39.2	16.2	17.9	32	36.6	49.6	–	–
Cc1cccc(C)c1N1CCN(C(=O)CCS)CC1	5.5	13.5	16.4	0	19.4	20.2	9.4	16.2	17.5	34.6	–	–
CCN(Cc1nc2ccsc2c(=O)[nH]1)C(=O)CCS	14	36.6	38.8	40.4	40.7	36.9	29.3	45.5	41.1	63.1	–	–
Cn1cc(C(=O)NCCS)c2nc(-c3ccccc3)ccc21	25	35.2	9.9	12.5	16.7	58.3	12.3	10.1	6.2	15.9	31.4	18.6
CCOCc1nc(C)c(C(=O)NCCS)s1	14	31.1	20.6	29.7	31.1	23.8	18.7	28.4	32.2	51.8	29.5	42.8
O=C(NCCS)c1ccc(OCc2ccccc2)cn1	11.2	13.7	11.9	20.9	16.4	42.8	15.4	14.4	12.6	19.9	20.7	25.1
